Results reported in PubChem BioAssay AID686978 (National Center for Advancing Translational Sciences (NCATS), 2013).
Where “and” joins values, the source holds several entries; their conditions need not be identical. Equal entries are not always repeated. The whole screen tested about 420,000 compounds, of which about 64,000 (15%) were called active. Inconclusive results, whose numbers are uncertain, are shown with a selection of clear calls. The call rests on the fitted dose curve; in most records, active means well fitted inhibition curve with a large enough effect; inconclusive means small, poorly fitted or top-dose-only effect; inactive means flat fitted curve, though single readings scatter. No potency is given beside an inconclusive call; the fits are too rough.

Assay: qHTS for Inhibitors of human tyrosyl-DNA phosphodiesterase 1 (TDP1): qHTS in cells in absence of CPT; further: nearly all actives have a fitted effect of over 55% in size
Conditions: DT40 Tdp1-/- hTDP1 cells, no CPT, ATP luminescence, 48 h; activity change, negative = growth inhibition: at 46.2 µM (top of the series) unless noted
How it was run: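 A cellular qHTS used chicken DT40 cells lacking endogenous Tdp1 but carrying stably transfected human TDP1. Compounds were applied without camptothecin, and cell growth kinetics were judged by ATP-dependent luminescence after ≥48 hr.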
On the % scale 0 is the no-effect control and ±100 the full control effect; potency means the concentration at half of the fitted maximal effect; tags describe the fitted curve by direction and shape.

Row | Compound | Potency | activity change, negative = growth inhibition
1 | O=C(C1CCN(S(=O)(=O)c2ccc(Cl)s2)CC1)N1CCN(c2ccccc2)CC1 | inconclusive [inhibitor, single point] | –
2 | CNS(=O)(=O)c1ccc(CCC(=O)N2CCOCC2)cc1 | inconclusive [inhibitor, partial curve, poor fit] | –
3 | CSc1ccc(/C=C/C(=O)OCC(=O)c2ccc[nH]2)cc1 | – | inactive: -3.73%
4 | COc1ccc(C(=O)c2coc3ccc(O)c(CN(C)C)c23)cc1 | inconclusive [inhibitor, single point] | –
5 | COc1ccc(CCNC(=O)c2ccccc2OCc2ccccc2)cc1 | inconclusive [inhibitor, single point] | –
6 | Cc1ccc(-c2nnc(-c3ccccc3)c(-c3ccccc3)n2)cc1 | inconclusive [inhibitor, partial curve] | –
7 | CC12CCC(C(=O)N(NC(=O)c3cc(Cl)ccc3O)C1=O)C2(C)C (stereo unspecified) | – | inactive: -13.9%
8 | CN(CCCNC(=O)CSc1cc(=O)n(C)c2ccc(Cl)cc12)Cc1ccccc1 | inconclusive [inhibitor, single point] | –
9 | Cc1cccc(OCCC(=O)Nc2nnc(C)s2)c1 | inconclusive [inhibitor, single point] | –
10 | O=C(NC(=S)Nc1ccc(N2CCOCC2)cc1)c1ccc(Cl)cc1 | – | inactive: -8.65%
11 | O=[N+]([O-])c1ccc(C[n+]2cccc3ccccc32)cc1 | inconclusive [inhibitor, single point] | –
12 | Cc1cccc(OCCC(=O)Nc2ccc(N3CCOCC3)cc2N2CCOCC2)c1 | inconclusive [inhibitor, single point] | –
13 | COc1ccc(OC)c(S(=O)(=O)Nc2cccc3c(O)cccc23)c1 | inconclusive [inhibitor, single point] | –
14 | COc1cccc(OC(=O)CSc2nnc(-c3ccccc3OC)o2)c1 | – | inactive: 0.133%
15 | O=C(NCC1CCCN1S(=O)(=O)c1cccs1)c1ccc(F)c(F)c1 (stereo unspecified) | inconclusive [inhibitor, single point] | –
16 | COc1ccc(NC(=S)N2CCN(c3ncccn3)CC2)c(OC)c1 | – | inactive: -12.7%
17 | Cc1ccc(S(=O)(=O)N2CCOC2CNC(=O)C(=O)NCCc2c[nH]c3ccccc23)cc1 (stereo unspecified) | inconclusive [inhibitor, single point] | –
18 | Cc1nnc(SCc2ccc(F)cc2)n1NC/C=C/c1ccccc1 | inconclusive [inhibitor, single point] | –
19 | CN(C)c1nc(OCCNC(=O)Nc2ccc(Cl)cc2)nc(N(C)C)n1 | – | inactive: -13.8%
20 | COc1ccc(S(=O)(=O)N2CCOC2CNC(=O)C(=O)NCCc2ccccc2OC)cc1C (stereo unspecified) | inconclusive [inhibitor, single point] | –
21 | COCc1cc(N2CCCC2)nc(-c2ccccc2)n1 | – | inactive: -29.5%
22 | CCN(Cc1nc2ccccc2c(=O)[nH]1)C(=O)c1cccc(S(=O)(=O)N2CCc3ccccc32)c1 | active: 16.4 µM | –
23 | CCCCN(C)C(=O)c1ccc(Nc2nc(C(N)Cc3ccccc3)cs2)nc1 (stereo unspecified) | active: 14.6 µM | –
24 | C/C(Cc1ccccc1)=N\NC(=O)c1ccccn1 | – | inactive: -3.58%

Row | Compound | Potency | activity change, negative = growth inhibition
25 | Cc1cc(C)c(N2CCN(S(=O)(=O)N3CCCCCC3)CC2)c(C)c1 | active: 18.4 µM | –
26 | COc1ccc(CNS(=O)(=O)c2cc(-c3cc(C)no3)ccc2OC)cc1OC | – | inactive: 6.62%
27 | COc1ccc(CN(C(=O)CN2C(=O)C(C)Oc3ccccc32)C2CCCC2)c(OC)c1 (stereo unspecified) | inconclusive [inhibitor, single point] | –
28 | Cc1ccc(S(=O)(=O)Nc2ccc(-c3cn4ccc(C)cc4n3)cc2)cc1 | active: 14.6 µM | –
29 | CC(=Nc1ccc(Br)cc1)c1sc2ccccc2c1O | inconclusive [inhibitor, full curve] | –
30 | O=C(CCCOc1ccc(Br)cc1)Nc1nnc(C2CC2)s1 | – | inactive: -5.5%
31 | O=C(NC(=S)Nc1ccc(S(=O)(=O)Nc2nccs2)cc1)c1cccc(F)c1 | – | inactive: -4.32%
32 | COc1cc(NC(=O)c2csc(-c3ccncc3)n2)cc(C(=O)Nc2cccc(C(F)(F)F)c2)c1 | active: 18.4 µM and active: 4.61 µM | –
33 | N#C/C(=C\c1c[nH]c2ccccc12)c1nnc2n1CCCCC2 | inconclusive [inhibitor, single point] | –
34 | CN1C(=O)/C(=C/c2cccc(Cl)c2)Sc2ccc(C(=O)N3CCOCC3)cc21 | inconclusive [inhibitor, single point] | –
35 | Cc1ccc(N2C(=O)CS(=O)(=O)C23C(=O)N(Cc2cccc(F)c2)c2ccccc23)cc1Cl (stereo unspecified) | active: 23.1 µM | –
36 | O=C(CSc1nc(-c2ccc(Cl)cc2)nc2c1Cc1ccccc1O2)N1CCCCC1 | – | inactive: -14.4%
37 | O=C(c1cc(-c2ccco2)nc2ccccc12)N(Cc1nnc(-c2ccc(Cl)cc2)o1)C1CC1 | inconclusive [inhibitor, single point] | –
38 | Cc1cc(NC(=O)CSc2nc3c(c(=O)n2Cc2ccccc2)SC(C)C3)no1 (stereo unspecified) | inconclusive [inhibitor, single point] | –
39 | CCC(C)c1ccccc1NC(=O)COC(=O)C1=COCCO1 (stereo unspecified) | – | inactive: -18.8%
40 | COc1ccc(C(=O)O)cc1Nc1nc2ccc(C)cc2n2cnnc12 | inconclusive [inhibitor, partial curve, poor fit] | –
41 | Cc1ccc(C)c(N2CCN(c3nc4ccccc4c4nc(CCn5nc(C)cc5C)nn34)CC2)c1 | – | inactive: -0.993%
42 | Cc1cccc(NC(=O)c2sc3nc4n(c(=O)c3c2C)N=C(c2ccc(F)cc2)CS4)c1C | – | inconclusive: -16.8% [inhibitor]
43 | Cc1ccc2nc(SCC(=O)c3cc(C)n(C)c3C)[nH]c2c1 | inconclusive [inhibitor, partial curve, poor fit] | –
44 | O=[N+]([O-])c1cc(C(F)(F)F)cc([N+](=O)[O-])c1NCCCN1CCOCC1 | inconclusive [inhibitor, single point] | –
45 | Cc1cc(=O)[nH]c(SCC(=O)c2ccc(C(C)C)cc2)n1 | active: 18.4 µM | –
46 | CCN(CC)S(=O)(=O)c1cccc(-c2nnc(SCC(=O)NCCC3=CCCCC3)n2N)c1 | inconclusive [inhibitor, single point] | –
47 | Cc1ccc2[nH]c(=O)c(CN(c3cccc(C)c3C)S(=O)(=O)c3ccccc3)cc2c1 | active: 5.8 µM | –
48 | CCOc1ccccc1NC(=O)N1CCCC(c2nc(-c3ccc(C)o3)no2)C1 (stereo unspecified) | inconclusive [inhibitor, single point] | –

Row | Compound | Potency | activity change, negative = growth inhibition
49 | CCc1nnc(NS(=O)(=O)c2ccc(Nc3ccc([N+](=O)[O-])c4nonc34)cc2)s1 | inconclusive [inhibitor, single point] | –
50 | CN1CCN(CC(=O)Nc2sc3c(c2C(=O)Nc2ccccc2)CCCC3)CC1 | inconclusive [inhibitor, single point] | –
51 | CCc1ccc(NC(=O)CSCc2nc(N)nc(Nc3ccccc3CC)n2)cc1 | inconclusive [inhibitor, single point] | –
52 | O=C(NC(=S)NNC(=O)c1ccco1)c1ccc(F)cc1 | active: 16.4 µM | –
53 | O=c1c(-c2ccccc2)c(O)cc(-c2ccncc2)n1-c1ccc(Cl)cc1 | – | inconclusive: -31.6% [inhibitor]
54 | C/C(=N\NC(=O)c1cc(-c2ccc(O)cc2)nc2ccccc12)c1cccnc1 | inconclusive [inhibitor, single point] | –
55 | Cn1cc(C(=O)Nc2ccc(F)c(Cl)c2)cn1 | inconclusive [inhibitor, partial curve, poor fit] | –
56 | C(#Cc1ccc(C#CCN2CCOCC2)cc1)CN1CCOCC1 | – | inactive: 2.44%
57 | Cc1ccc(-c2csc(NC(=O)c3ccccc3F)c2C(=O)O)cc1 | active: 20.6 µM | –
58 | C=CCn1c(SCC(=C)C)nc2c1c(=O)[nH]c(=O)n2C | – | inactive: -8.5%
59 | CCOc1ccccc1Nc1nnc(SCC(=O)N(C)C2CCS(=O)(=O)C2)s1 (stereo unspecified) | – | inconclusive: -34.5% [inhibitor]
60 | COC(=O)Cn1c(=O)c2c(nc3n2CCN3c2cccc(C)c2)n(C)c1=O | inconclusive [inhibitor, partial curve, poor fit] | –
61 | CCOC(=O)c1nnn(-c2ccc([N+](=O)[O-])cc2[N+](=O)[O-])c1C | active: 11.6 µM | –
62 | N#Cc1ccsc1NC(=O)CN1CCN(S(=O)(=O)c2ccccc2C(F)(F)F)CC1 | inconclusive [inhibitor, single point] | –
63 | CC1Cc2ccccc2N1c1ncnc2nc[nH]c12 (stereo unspecified) | active: 23.1 µM | –
64 | CCOc1ccc(NC(=O)CN(c2ccc(C)cc2)S(=O)(=O)c2c(C)nn(C)c2C)cc1 | inconclusive [inhibitor, partial curve] | –
65 | O=C1C2C3CC(C(Br)C3Br)C2C(=O)N1c1nccs1 (stereo unspecified) | – | inactive: 2.5%
66 | O=C(N/N=C/c1ccncc1)c1ccccc1OCc1ccc(Br)cc1 | inconclusive [inhibitor, single point] | –
67 | Cc1cc(Cn2nc(C(=O)NCc3cccc(Br)c3)cc2-c2ccccc2)on1 | inconclusive [inhibitor, single point] | –
68 | O=C(CCCC(=O)c1ccccc1)Nc1ccc(O)cc1 | inconclusive [inhibitor, single point] | –
69 | CNc1ccccc1C(C)(C)c1cc(-c2ccc(F)cc2)no1 | inconclusive [inhibitor, partial curve, poor fit] | –
70 | CCCC(=O)Nc1ccc(S(=O)(=O)Nc2nccs2)cc1 | – | inactive: -11.5%
71 | Nc1ccc(-c2cnc(-c3ccc(N)cc3)nc2)cc1 | inconclusive [inhibitor, partial curve] | –
